Source: PubChem BioAssay AID1159614 (National Center for Advancing Translational Sciences (NCATS), 2016)
The campaign covered roughly 45,000 compounds. About 65 (0.1%) were called active. Calls follow the shape of the dose curve; as a rule, active = well fitted activation curve with a large enough effect; inconclusive = small, poorly fitted or top-dose-only effect; inactive = no such curve, though single readings can be large or run the other way. The list shows a part of the results.

Biological target: Galactocerebrosidase (Homo sapiens) (UniProt P54803)
Assay: A Novel Cell-Based Assay to Identify Small Molecules for B -Galactocerebrosidase; also: 0% is about no effect; nearly all actives have a fitted effect of over 65% in size
Conditions: 145M-Twi-hGALC-G270D cells (Twitcher mouse brain line with human GALC G270D), HMU-beta-Gal fluorescence, 48 h; series mostly up to 57.5 µM; activation: at the top concentration
Outline: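 Fluorogenic HMU-b-Gal hydrolysis (0.1 mM final, pH 5.2 citrate-phosphate with 1 mg/mL sodium taurocholate; carbonate stop buffer) measures mutant GALC activity after compound treatment of live 145M-Twi Twitcher brain cells stably carrying human GALC-G270D, with wild-type GALC line alongside; activation sought.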

UniProt P54803, sequence (P54803 whole entry, looked up): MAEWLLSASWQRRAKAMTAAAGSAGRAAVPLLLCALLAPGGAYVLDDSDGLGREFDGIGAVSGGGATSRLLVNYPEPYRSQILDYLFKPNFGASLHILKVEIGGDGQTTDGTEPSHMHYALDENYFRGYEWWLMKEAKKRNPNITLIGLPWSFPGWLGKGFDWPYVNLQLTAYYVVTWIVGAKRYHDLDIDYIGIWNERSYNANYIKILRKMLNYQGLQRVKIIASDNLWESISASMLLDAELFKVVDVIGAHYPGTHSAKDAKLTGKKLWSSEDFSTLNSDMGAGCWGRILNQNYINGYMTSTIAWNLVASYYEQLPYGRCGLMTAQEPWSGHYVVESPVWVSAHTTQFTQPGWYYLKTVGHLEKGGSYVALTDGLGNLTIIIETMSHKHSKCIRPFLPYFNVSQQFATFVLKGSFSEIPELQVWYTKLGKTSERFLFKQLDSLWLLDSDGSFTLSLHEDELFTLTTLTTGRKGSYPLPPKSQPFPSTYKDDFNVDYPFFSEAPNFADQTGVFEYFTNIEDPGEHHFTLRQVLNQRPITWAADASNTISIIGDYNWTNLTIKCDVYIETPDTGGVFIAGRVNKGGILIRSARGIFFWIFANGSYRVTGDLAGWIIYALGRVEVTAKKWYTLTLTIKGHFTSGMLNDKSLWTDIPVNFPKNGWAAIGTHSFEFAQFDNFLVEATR

Row | SMILES | activation
1 | COCc1c(Br)c(C)nc2sc3c(=O)n(-c4cccc(Br)c4)nnc3c12 | inactive: -12.5%
2 | N#Cc1ccccc1CSc1nnc2ccc3ccccc3n12 | inactive: -12.6%
3 | Cn1c(C(=O)N2CCC(C(=O)NCCc3ccccc3)CC2)cc2sccc21 | inactive: -6.76%
4 | CCC(C(=O)NC1CCCCC1)n1c(SCc2cccc(C)c2)nc2ccncc21 (stereo not drawn) | inactive: -9.28%
5 | CCN(CC)CCNC(=O)c1cn(CC)c2ccc(S(=O)(=O)N(C)C3CCCCC3)cc2c1=O | inactive: -9.57%
6 | Cc1cc(=O)n(CC(=O)NC(C)c2ccccc2)c2c1c(C)nn2-c1cccc(F)c1 (stereo not drawn) | inactive: 4.63%
7 | COc1cc(C(=O)NCCCCCC(=O)O)cc(OC)c1OC | inactive: -10.8%
8 | CC(NC(=O)c1ccco1)c1nc(-c2ccccc2)no1 (stereo not drawn) | inactive: -8.18%
9 | CCN1C(=O)c2ccccc2S(=O)(=O)c2ccc(C(=O)NCc3ccc(OC)cc3)cc21 | inactive: -17.2%
10 | Nc1ccc([N+](=O)[O-])cc1O | inactive: -6.94% [at 114 µM]
11 | COc1cc(OC)cc(-c2cc3nc(C)c(CCC(=O)Nc4ccccc4OC)c(C)n3n2)c1 | inactive: -9.54%
12 | CCc1ccccc1NC(=O)CSc1nnc(-c2ccccc2)c(-c2ccccc2)n1 | inactive: -5.9%
13 | O=C(CN(c1ccc(Cl)c(C(F)(F)F)c1)S(=O)(=O)c1ccccc1)Nc1cccnc1 | inactive: -6.35%
14 | COCCNC(=O)Cn1c(=O)c2cccn2c2ccc(F)cc21 | inactive: -13.2%
15 | C[C@@H]1CCC[C@H](C)N1CCCC(O)(c1ccccc1)c1ccccn1 (stereo partly drawn) | inactive: -12%
16 | NC(=O)CSc1nc2c(oc3ccccc32)c(=O)n1Cc1ccccc1 | inactive: -4.39%
17 | OC[C@]1(O)OC[C@@H](O)[C@H](O)[C@@H]1O | inactive: -18.4%
18 | CCSc1oc(-c2cccs2)nc1S(=O)(=O)c1ccc(Br)cc1 | inactive: -28.1%
19 | CCc1nnc(NC(=O)c2nc(SC)ncc2Cl)s1 | inactive: -23%
20 | Cc1ccccc1C(=O)Nc1c(C(=O)Nc2cccc(F)c2)oc2ccccc12 | inactive: -5.71%
21 | CN(C1CCCCC1)S(=O)(=O)c1ccc2c(c1)c(=O)c(C(=O)NCc1ccc(F)cc1)cn2C | inactive: -15%
22 | COc1ccccc1CNC(=O)C1CCN(C(=O)c2sccc2-n2cccc2)CC1 | inactive: -12.7%
23 | COc1ccccc1CNC(=O)c1cc2c(-c3ccc(Cl)cc3)nn(C)c2s1 | inactive: -7.11%
24 | CCn1ccc2c(OCC(=O)Nc3ccc(C(C)=O)cc3)cccc2c1=O | inactive: -3.8%
25 | O=S(=O)(NCC(c1ccco1)N1CCN(c2ccccc2)CC1)c1ccccc1 (stereo not drawn) | inactive: -3.91%

Row | SMILES | activation
26 | Cc1cccn2c3c(c(=O)nc12)C(c1ccc(F)cc1)CC(=O)N3 (stereo not drawn) | inactive: -22%
27 | CCCN(C(=O)c1c(C)oc2ncnc(N3CCOCC3)c12)c1ccc(Cl)c(Cl)c1 | inactive: -10.9%
28 | CCOc1ccc(Cn2nnc(C(=O)Nc3ccc(Cl)cc3)c2N)cc1 | inactive: 8.04%
29 | O=[N+]([O-])c1cncn1CCN1CCOCC1 | inactive: -19.1%
30 | CCOC(=O)C1CCCN(C(=O)Cn2ncc3c4ccccc4n(Cc4ccccc4)c3c2=O)C1 (stereo not drawn) | inactive: -0.283%
31 | CCc1ccccc1NC(=O)C(C)n1c(=O)cc(C)c2c(C)nn(-c3ccccc3)c21 (stereo not drawn) | inactive: -4.57%
32 | CCN(CC)S(=O)(=O)c1ccc2c(c1)nc(CN(C)C(=O)Nc1ccc(C)c(F)c1)n2C | inactive: 0.128%
33 | O=C(OCC1CCCO1)c1ccc2c(c1)N(Cc1ccccc1)C(=O)c1ccccc1S2(=O)=O (stereo not drawn) | inactive: 3.9%
34 | CCc1ccccc1NC(=O)CN1C(=O)CCSc2ccc(S(=O)(=O)N3CCCC3)cc21 | inactive: -10.1%
35 | COc1ccc(NC(=O)c2sc3nc(C(F)(F)F)cc(C)c3c2N)cc1OC | inactive: -3.51%
36 | Cc1ccc(NC(=O)c2nc(S(C)(=O)=O)ncc2N(Cc2ccco2)Cc2cccs2)cc1C | inactive: -19.5%
37 | COc1ccccc1NC(=O)c1cc2c(C)nn(-c3ccccc3)c2s1 | inactive: -2.01%
38 | COc1ccc(N2CCN(C(=O)COCc3cc(-c4ccc5c(c4)OCO5)on3)CC2)cc1 | inactive: -6.95%
39 | COCCCNC(=O)CSc1nc2cc3c(cc2c(=O)n1CCCC(=O)NCc1ccc2c(c1)OCO2)OCO3 | inactive: -6.46%
40 | Cn1c(=O)cc(SCC(=O)N2CCN(c3ccccc3F)CC2)c2ccc(Cl)cc21 | inactive: -21.5%
41 | Cc1ccccc1OCCSc1nc2ccc(NC(=O)c3cccs3)cc2s1 | inactive: -25.5%
42 | CCn1nc(-c2ccccc2)c(-c2ccccc2)c(C(=O)Nc2ccc(NC(C)=O)cc2)c1=O | inactive: -14.2%
43 | Cc1cc(C)cc(Oc2nc3ccccn3c(=O)c2/C=C(\C#N)c2nc3ccccc3s2)c1 | inactive: -6.1%
44 | O=C(NC1CCN(Cc2ccccc2)CC1)c1ccc(Cn2c(=O)c3ccccc3n(Cc3ccc(F)cc3)c2=O)cc1 | inactive: -20.1%
45 | Cc1ccc(-c2csc(=Nc3ccccc3)n2Cc2ccc3c(c2)OCO3)cc1 | inactive: -13.8%
46 | Cc1ccc(Cn2ccnc2SCC(=O)Nc2nnc(C)s2)cc1 | inactive: -10.5%
47 | COc1ccc(OC)c(NC(=O)Nc2c(C)n(C)n(-c3ccccc3)c2=O)c1 | inactive: -11.9%
48 | O=C(Cc1ccccc1)Nc1sc2c(c1C(=O)Nc1ccc(Br)cc1)CCCC2 | inactive: -22.3%
49 | O=C(NCCN1CCCCC1)c1ccc(Cn2c(SCc3ccccc3)nc3cccnc32)cc1 | inactive: -25.9%
50 | CC1(c2ccc(Cl)cc2)CC(C)(C)N(C(=O)c2cccc(F)c2)c2ccccc21 (stereo not drawn) | inactive: -14.1%

Row | SMILES | activation
51 | COCCCn1c(-c2ccc(S(=O)(=O)N3CCOCC3)cc2)csc1=Nc1ccccc1 | inactive: -31.5%
52 | COc1ccc(CNC(=O)c2cc3sccc3n2Cc2ccc(C)cc2)cc1 | inactive: -14.4%
53 | Cc1ccc2c(CNCc3ccc(C)o3)c(C(=O)O)n(Cc3ccc(F)cc3)c2c1 | inactive: -4.8%
54 | CCOc1ccc(CNC(=O)c2cc(-c3ccc(Cl)s3)nc3ccccc23)cc1 | inactive: -6.63%
55 | O=C(c1ccc2c(c1)N(Cc1ccc(Cl)cc1)C(=O)c1ccccc1S2=O)N1CCCCC1 (stereo not drawn) | inactive: -12.2%
56 | COc1ccc(C(=O)Oc2c(Sc3ccc(C)cc3)c(C)nn2C(C)(C)C)cc1OC | inactive: -33.6%
57 | COc1ccccc1NC(=O)Cn1c(=O)n(CC(=O)NCc2ccccc2Cl)c(=O)c2sccc21 | inactive: -6.67%
58 | CCc1c(C)[nH]c2c1C(=O)C(CN1CCOCC1)CC2 (stereo not drawn) | inactive: -12.3%
59 | Cc1ccc(C(=O)NC2(C(F)(F)F)N=C(c3ccccc3)N(Cc3ccccc3)C2=O)cc1 (stereo not drawn) | inactive: -17.5%
60 | Cc1ccc(C(=O)Oc2cc(-c3ccc4c(c3)OCO4)cc(=O)c3c(C)oc(C)c23)cc1 | inactive: -6.53%
61 | Cc1ccc(NC(=O)C2CCN(c3nc(-c4ccc(C(C)C)cc4)no3)CC2)c(Cl)c1 | inactive: -15%
62 | CC(=O)c1ccc(NS(=O)(=O)c2ccc(-n3cccn3)cc2)cc1 | inactive: -31.1%
63 | CCOc1ccc(NC(=O)Cn2c(=O)n(CCCS(=O)(=O)C3CCCCC3)c(=O)c3ccccc32)cc1 | inactive: -13.7%
64 | COc1ccc(CCNC(=O)CCCn2nc(C)c3sc4ccccc4c3c2=O)c(OC)c1 | inactive: -12.1%
65 | Nc1ccc(O)c([N+](=O)[O-])c1 | inactive: -32.6% [at 114 µM]
66 | Cc1cccc(NC(=O)CCNS(=O)(=O)c2ccc3c(c2)CCN3C(=O)C2CC2)c1 | inactive: -33.9%
67 | CCO/C([O-])=N/c1c[n+](N2CCOCC2)no1 | inactive: -6.91%
68 | Cc1ccc(NC(=O)Cn2cc(C(=O)C3CCCCC3)c3ccccc32)cc1 | inactive: -7.96%
69 | CCOc1ccc(-c2cc(CCCC(=O)NCCc3cc(OC)c(OC)c(OC)c3)no2)cc1 | inactive: 17.4%
70 | CCOC(=O)C1CCN(C(c2ccc(C)cc2)c2c(O)cc(C)n(CCOC)c2=O)CC1 (stereo not drawn) | inactive: -5.53%
71 | Cc1ccc(OC(=O)CSc2nnc(-c3ccc4c(c3)OCO4)o2)cc1 | inactive: -15.9%
72 | Cc1cccc(N(C)C(=O)Cc2c(C(=O)O)[nH]c3ccccc23)c1 | inactive: -3.93%
73 | Cc1ccc(-n2ncc3c(N4CCC(Cc5ccccc5)CC4)ncnc32)cc1C | inactive: -16.5%
74 | COc1ccc(N2CCN(C(=O)C3CCN(S(=O)(=O)c4cn(C)cn4)CC3)CC2)cc1 | inactive: -13.5%
75 | Cc1ccc(C(=O)Nc2ccccc2)cc1S(=O)(=O)Nc1ccccc1 | inactive: -11.9%

Row | SMILES | activation
76 | COC(=O)c1c(C)oc2ccc(N(C(=O)c3ccncc3)S(=O)(=O)c3cc(C)ccc3C)cc12 | inactive: -4.65%
77 | Cc1ccc(NC(=O)C2CCC(CNS(=O)(=O)c3cccc4nsnc34)CC2)c(Cl)c1 (stereo not drawn) | inactive: -25.3%
78 | CCOC(=O)c1cnc2cc(F)c(F)cc2c1Nc1ccccc1O | inactive: -3.86%
79 | Cc1cccc(C(=O)Nc2sc3c(c2C(=O)NC(C)C)CCCC3)c1 | inactive: 4.49%
80 | Cn1c(=O)c2c(nc(NCCc3ccccc3)n2Cc2ccc(Cl)cc2)n(C)c1=O | inactive: 4.89%
81 | CCOC(=O)c1cc(S(=O)(=O)NCc2cccc(Cl)c2)[nH]n1 | inactive: -28.7%
82 | COc1cc(OC)c(NC(=O)c2noc3c2CSc2ccccc2-3)cc1Cl | inactive: -7.22%
83 | CCCCn1c(SCC(=O)Nc2ccc(OCC)cc2)nc2ccsc2c1=O | inactive: -3.59%
84 | CC(=O)c1ccc(N2CCN(C(=O)CCc3nnc4n(C)c(=O)c5sccc5n34)CC2)cc1 | inactive: 0.424%
85 | CCc1ccccc1NC(=O)[C@@H](c1ccccc1)N1Cc2ccccc2C1=O | inactive: -10.1%
86 | Cc1ccc(NC(=O)CCCn2c(=O)c3cccn3c3cccnc32)cc1C | inactive: -14.9%
87 | Cc1ncc(CO)c(CO)c1O | inactive: -13%
88 | Cc1ccc(CNC(=O)CSc2ncc3c(n2)-c2ccc(Cl)cc2N(Cc2ccccc2)S3(=O)=O)cc1 | inactive: -5.38%
89 | Cc1ccc(NS(=O)(=O)c2cc3[nH]c(=O)c(=O)[nH]c3cc2C)cc1N(C)C | inactive: -17.9%
90 | Cc1ccc(C)c(NC(=O)CSc2nnc(-c3cc4occc4n3C)n2-c2ccccc2C)c1 | inactive: -13.8%
91 | Nc1nnnn1-c1ccccc1 | inactive: -8.48%
92 | COc1ccc(C(=O)COC(=O)CCCC(=O)Nc2cc(C(F)(F)F)ccc2Cl)cc1 | inactive: -9.23%
93 | COC(=O)c1cc(Cl)ccc1NC(=O)CSc1ncc(S(=O)(=O)c2ccc(Br)cc2)c(=O)[nH]1 | inactive: -12.6%
94 | O=C(Nc1ccc(Br)cc1F)N1CCC(CN2CCc3ccccc3C2)CC1 | inactive: -5.64%
95 | CC(C)CC(=O)Nc1ccccc1OCc1cc(=O)n2ccccc2n1 | inactive: -3.76%
96 | CC(=O)N1CCc2c(sc3c2c(=O)n(-c2cc(Cl)ccc2C)c(=O)n3Cc2ccccc2F)C1 | inactive: -29.5%
97 | Cc1ccc(CNC(=O)CCCc2nnc3n(C)c(=O)c4sccc4n23)cc1 | inactive: -15.3%
98 | O=C(NCCc1ccc(Cl)cc1)c1cc(-c2ccc(Cl)cc2)n[nH]1 | inactive: -20%
